PubChem BioAssay (NCATS)
“And” between values parts separate entries of the source, which are not always exact repeats. Equal entries are not always repeated. This list was built around the results that the source calls inconclusive (neither active nor inactive); the mix of calls is not that of the screen. Potencies beside an inconclusive call are fits to weak or partial responses and may not hold up. Some compounds were tested as several samples or in several runs, with calls that do not always agree. The source made the active and inactive calls. Calls follow the shape of the dose curve; as a rule, active = well fitted inhibition curve with a large enough effect; inconclusive = small, poorly fitted or top-dose-only effect; inactive = flat fitted curve, though single readings scatter. Numbered stars: 1 amine (or outer) side, 2 acyl side, 3 side chain; on linkers, the order of the positions; unused ones are H or OH. Bridge positions count the residues as written; N and C are the ends. Square brackets hold non-standard residues; d marks the D form. Peptide text beside a SMILES is read from it. * marks the point of attachment. ξ: configuration not given here. X10 = NC1=NCCC(C(N[*:1])C(=O)[*:2])N1; ΔAla(3-NHCONH2) = NC(=O)NC=C(N)C(=O)O; ξβ3hOrn = NCCCC(N)CC(=O)*; Dap = NC[CH](N)C(=O)O

The molecules below were run against Glutathione peroxidase 1 (Homo sapiens) (UniProt P07203) (assay: Primary qHTS Assay for Inhibitors of Recombinant Selenoprotein Glutathione Peroxidase 1 (GPX1) (AID 1845191; also: nearly all actives have a fitted effect of over 65% in size)). Conditions: recombinant GPX1, GR-coupled NADPH fluorescence, 15 min; activity, negative = inhibition: at 48.8 µM (top of the series); series mostly up to 48.8 µM.
Source text: Assay Provider: Elias S.J. Arner MD PhD.
Department of Medical Biochemistry and Biophysics
Karolinska Institutet, Solna, Stockholm, Sweden
Selenoprotein glutathione peroxidases (GPX), like the ubiquitously expressed GPX1 and the ferroptosis modulator GPX4, enact their antioxidant activities by reducing hydroperoxides using glutathione. […] GPX1 and GPX4 inhibitors have thus shown promise as anti-cancer agents. Existing inhibitors are often promiscuous, or modulate GPX activity only indirectly, so novel direct inhibitors identified through screening against GPX1 and GPX4 could be valuable. Here, we developed optimized glutathione reductase (GR)-coupled GPX assays for the biochemical high-throughput screen (HTS) of almost 12,000 compounds with known mechanisms of action. Initial hits were triaged using a GR counter-screen, assessed for isoform specificity using a separate GPX2 assay, and were assessed for general selenocysteine-targeting activity using a thioredoxin reductase (TXNRD1) assay. With this suite of assays, we identified novel GPX1/GPX2- and GPX4-specific inhibitors and can here present a validated pipeline for future discovery research for selenoprotein-targeting agents.
SEQUENCE No. (e.g., 1, 2, 3, etc.); […] (e.g., Cells, Incubation, Reagent, etc.); VALUE; DESCRIPTION.
1; Reagent 1; 3 uL; GPx1 enzyme or no enzyme control in 1536-well, black, solid Greiner assay plate.
2; Compound; 25 nL; Kalypsis pin tool (Wako USA) equipped with a 1536-well pin head.
3; Incubation; 30 min; room temperature.
4; Reagent 2; 1 uL; 10 nM GPX1, 1 mM GSH, 0.5 mM CHP, 0.5 mM NADPH, 100 nM GR, 0.01% BSA substrate
5; Detection; Fluorescence; ViewLux microplate reader, excitation 340 nm and emission 450 nm.
6; Incubation; 15 min; room temperature.
7; Detection; Fluorescence; ViewLux microplate reader, excitation 340 nm and emission 450 nm.
NOTES (numbers refer to Sequence numbers above)
1. 3 uL of 16.66 nM GPX1 and 0.016% BSA in assay buffer (50 mM Tris-HCl, 2 mM EDTA (pH 7.5), 150 mM NaCl) was added to columns 3-48 of 1536-well assay plates using a BioRAPTR Flying Reagent Dispenser (Let's Go Robotics (LGR), Carlsbad, CA). A no-enzyme control (0.01% BSA in TES assay buffer) was added to columns 1-2.
2. 25 nL of test compounds and DMSO controls were added to each well with a pin tool (Kalypsys).
3. The assay plates were incubated for 30 minutes at room temperature.
4. 1 uL of master mix (500 nM glutathione reductase (GR), 5 mM reduced glutathione (GSH), 2.5 mM NADPH in assay buffer) was added. 1 uL of cumene hydroperoxide (CHP) ([2.5 mM] in 50% EtOH) was then added within 5 minutes to initiate the reaction. Final concentrations were: 10 nM GPX1, 1 mM GSH, 0.5 mM CHP, 0.5 mM NADPH, 100 nM GR, 0.01% BSA.
5. Initial fluorescence readout (t=0) at 340/450 nm was measured using a ViewLux multimodal detector (PerkinElmer, Waltham, MA).
7. Endpoint fluorescence readout (t=15) at 340/450 nm was measured 15 min after room temperature incubation.
Potency is read from the fitted curve at half-maximal effect; tags tell the direction and shape of the fitted curve.

Chain of UniProt P07203 (P07203 whole entry, looked up): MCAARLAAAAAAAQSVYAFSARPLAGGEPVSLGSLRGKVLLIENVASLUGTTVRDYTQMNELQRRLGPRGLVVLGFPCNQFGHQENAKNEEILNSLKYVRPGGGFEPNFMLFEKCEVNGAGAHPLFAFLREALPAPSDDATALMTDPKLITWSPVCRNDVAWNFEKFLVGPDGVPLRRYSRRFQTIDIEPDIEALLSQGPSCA

Compound | Potency | outcome | activity, negative = inhibition
O=C(Nc1ccccc1)OCC(CN1CCCCC1)OC(=O)Nc1ccccc1 (stereo not given) | inconclusive: 3.6 µM [inhibitor, full curve] |  | 
CN(C)c1ccc(C(=C2C=CC(=[N+](C)C)C=C2)c2ccccc2)cc1 | inconclusive: 25.5 µM [inhibitor, single point] |  | 
CS(=O)c1ccc(-c2nc(-c3ccc(F)cc3)c(-c3ccncc3)[nH]2)cc1 (stereo not given) | inconclusive: 32.1 µM [inhibitor, single point] |  | 
Cc1[nH]cnc1CN1CCc2c(c3ccccc3n2C)C1=O | inconclusive: 12.8 µM [inhibitor, partial curve, poor fit] |  | 
CCCCCCCCCCCCOCCOCCOCCOCCOCCOCCOCCOCCOCCO | inactive |  | 
CN(C)c1ccc2nc3ccc(=[N+](C)C)cc-3sc2c1 | inconclusive: 4.59 µM [inhibitor, single point] |  | 
CCN1CCC(n2cc(CNc3cc(Cl)c4ncc(C#N)c(Nc5ccc(F)c(Cl)c5)c4c3)nn2)CC1 | active: 1.15 µM |  | 
NCCCC(N)CC(=O)NCC1NC(=O)C(CO)NC(=O)C(N)CNC(=O)C(C2CCN=C(N)N2)NC(=O)C(=CNC(N)=O)NC1=O (stereo not drawn) (H-[Dap]S[Dap](ξβ3hOrn)[ΔAla(3-NHCONH2)][X10]; lactam 1-C; configuration not given here) |  | inactive [at 0.4 µM] | 
Cc1c(NC(=O)c2ccc(C(C)(C)C)cc2)cccc1-c1cn(C)c(=O)c(Nc2ccc(C(=O)N3CCOCC3)cc2)n1 | inactive |  | 
CC1(C)CCC2=C(O1)c1ccccc1C(=O)C2=O | active: 16.3 µM |  | 
Cc1cc(O)c2ccccc2c1O | inconclusive: 25.5 µM [inhibitor, single point] |  | 
CC(C)(C)OC(=O)CN(Cc1ccc(Cl)cc1)Cc1ccc([N+](=O)[O-])s1 | inconclusive: 3.65 µM [inhibitor, partial curve] |  | 
CN(C)CCn1nnnc1SCC1=C(C(=O)O)N2C(=O)[C@@H](NC(=O)Cc3csc(N)n3)[C@H]2SC1 | active: 4.53 µM |  | 
O=C1NC(=O)/C(=C/c2ccc(-c3ccc(F)cc3O)o2)S1 | inconclusive: 29 µM [inhibitor, single point] and inconclusive: 28.2 µM [inhibitor, single point] |  | 
CO[C@@]1(NC(=O)Cc2cccs2)C(=O)N2C(C(=O)O)=C(COC(N)=O)CS[C@@H]21 | active: 6.4 µM |  | 
Oc1ccc2ccccc2c1SSc1c(O)ccc2ccccc12 | inconclusive: 20.5 µM [inhibitor, single point] |  | 
CC1CN(c2cc3c(cc2F)c(=O)c(C(=O)O)cn3-c2ccc(F)cc2F)CCN1 (stereo not given) | inconclusive: 8.06 µM [inhibitor, single point] |  | 
CC(=O)SCC[N+](C)(C)C | inactive |  | 
CC(=C(CCOC(=O)C(C)C)SSC(CCOC(=O)C(C)C)=C(C)N(C=O)Cc1cnc(C)nc1N)N(C=O)Cc1cnc(C)nc1N | inconclusive: 32.1 µM [inhibitor, single point] |  | 
CC(C)c1ccc2oc3nc(N)c(C(=O)O)cc3c(=O)c2c1 | active: 22.7 µM and active: 16.3 µM |  | 

Compound | Potency | outcome | activity, negative = inhibition
c1ccc2sc(SN3CCOCC3)nc2c1 | active: 20.2 µM |  | 
O=c1c2ccccc2nc2n1CCc1c-2[nH]c2ccccc12 | inconclusive: 25.5 µM [inhibitor, single point] |  | 
COc1ccc(C2CC(c3ccccc3)=NN2c2ccc(S(N)(=O)=O)cc2)cc1 (stereo not given) | inconclusive: 2.27 µM [inhibitor, full curve] |  | 
Cc1cccc(Nc2nc(-c3ccncc3)cs2)c1 | inactive |  | 
CN1CCN(C2=Nc3cc(Cl)ccc3Nc3ccccc32)CC1 | inconclusive: 23 µM [inhibitor, single point] |  | 
NS(=O)(=O)c1cccc2c1C(=O)c1cccc(O)c1C2=O | inconclusive: 0.0728 µM [inhibitor, full curve, poor fit] |  | 
Cc1csc(NC(=O)c2sc3nc4c(c(C(F)(F)F)c3c2N)CCC4)n1 | inconclusive: 25.5 µM [inhibitor, single point] |  | 
CC(C)(C)Cn1c(N)nc2ccc(-c3[nH]c(C(C)(C)C)nc3-c3ccc(F)cc3)nc21 | active: 16.1 µM and inconclusive: 3.25 µM [inhibitor, partial curve] |  | 
COc1cc(NC(C)CCCN)c2ncccc2c1 (stereo not given) | inconclusive: 8.06 µM [inhibitor, partial curve, poor fit] |  | 
COc1ccnc(CS(=O)c2nc3ccc(OC(F)F)cc3[nH]2)c1OC (stereo not given) | active: 9.04 µM |  | 
C#CC1(O)CC[C@H]2[C@@H]3CCC4=CCCC[C@@H]4[C@H]3CC[C@@]21C (stereo not given in full) |  |  | inconclusive: -32.8% [inhibitor]
CN(C)c1ccc(Nc2nc(N)n(C(=O)c3c(F)cccc3F)n2)cc1 | inconclusive: 29 µM [inhibitor, single point] |  | 
CNCc1ccc(-c2[nH]c3cc(F)cc4c3c2CCNC4=O)cc1 | active: 20.2 µM and inconclusive: 20.5 µM [inhibitor, single point] and inconclusive: 22.7 µM [inhibitor, partial curve] |  | 
OC[C@@H](O)[C@@H](O)[C@H](O)[C@H](O)CO | inactive |  | 
O=C1c2ccccc2-[n+]2ccc3c([nH]c4ccccc43)c21 | inconclusive: 0.0459 µM [inhibitor, full curve] |  | 
CCN1/C(=C/C(C)=O)Sc2ccc(OC)cc21 | inconclusive: 35.5 µM [inhibitor, partial curve, poor fit] |  | 
CC(=O)Oc1cc2c(s1)CCN(C(C(=O)C1CC1)c1ccccc1F)C2 (stereo not given) | active: 16.1 µM and active: 20.2 µM |  | 
O=C1C(Cl)=C(NCCN2CCOCC2)C(=O)c2ncccc21 | active: 9.16 µM |  | 
OCc1cc(C(O)CNCCCCCCOCCCCc2ccccc2)ccc1O (stereo not given) | inconclusive: 32.1 µM [inhibitor, partial curve, poor fit] |  | 
CCc1nn(CCCN2CCN(c3cccc(Cl)c3)CC2)c(=O)n1CCOc1ccccc1 | inactive |  | 
